Laboratory results taken from the supplement of paper PMC5499739.
Over roughly 16,000 sequences, “Z-score” has its median near -0.37; the highest 2% begin near 3.2. This is one part of the list.

Tested on: RBM10 RRM1-ZnF (GST-tagged construct)
Assay: RNAcompete 7-mer binding Z-score; higher = stronger binding preference
How it was run: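 A one-sided Z-score for enrichment, taken across the probes containing each heptamer motif, was assigned to every such motif. The RNA came from a designed pool of 241 399 sequences up to 41 nt (1.5 nmol), bound by 20 pmol of GST-tagged RBM10 constructs in 1 ml Hepes pH 7.8 buffer with glutathione Sepharose beads for 30 min at 4°C. Four 2-min washes at 4°C preceded identification of bound RNA by microarray hybridisation.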

Point of comparison: AGGCCAC, “RNAcompete 7-mer binding Z-score” value -0.591. Against it:
- GAACCUA — higher, -0.587
- GGUAGCC — higher, 0.784
- CAACCGU — lower, -0.694
- GCGUGCC — higher, -0.353
- CCUUGCC — lower, -0.763
- AUGGUGA — higher, 2.6
- UUGGACA — higher, 0.504
- CCCCACC — higher, -0.24
- GGUGCGG — higher, 2.92
- UAAUCGA — higher, -0.201
- GUGGGAU — higher, 3.68
- CGGCGAU — higher, -0.035
- GCCUAUC — lower, -0.873
- GAUCUUU — lower, -0.828
- AGAACCU — lower, -0.958
- ACGAGGU — higher, 0.959
- AGUGUGC — higher, 0.0333
- AGACUUG — higher, -0.402
- AAAUGGG — higher, 4.08
- UCGCUGC — lower, -0.617
- AGGUAUC — higher, -0.0544
- ACCUAGU — higher, -0.506
- UGGAGAG — higher, 2.19
- ACACCUG — lower, -0.698
- CAAUACC — lower, -0.795
- GGCUCCG — higher, -0.314
- CACACUG — higher, -0.314
- CGUACCG — higher, -0.49
- GGUGACA — higher, 2.03
- CCCACUA — lower, -0.733
- AGGUAAC — higher, 0.852
- CAUGUAU — higher, -0.509
- CCGGAAC — higher, -0.49
- ACAACCU — lower, -0.785
- AUGUAUG — higher, 0.264
- UAAUUCU — lower, -0.73
- AGAAGUG — higher, 1.23
- GCAUUUC — lower, -0.86
- AGAUCUC — lower, -0.967
- GAAGAAA — higher, 0.91
- ACCGGGC — higher, -0.00571
- CUUUUAU — lower, -0.919
- GGGCGGC — higher, 1.85
- ACACGCU — higher, -0.552
- CUAUUCU — lower, -0.863
- UACCGGC — lower, -0.743
- AAGGUGA — higher, 3.66
- CUGUAAA — lower, -0.694
- UGGCUUC — higher, -0.344
- AAAUCUA — lower, -0.61
- CGUAUUA — higher, -0.526
- UUUCAAA — lower, -0.857
- AGUCCGU — lower, -0.668
- GUAACGC — higher, -0.0285
- AUCGUUG — higher, -0.503
- AGGUACC — higher, -0.175
- AAUGCGG — higher, 1.05
- CUAGCAA — lower, -0.617
- UAAGCUU — lower, -0.62
- CAACGGC — higher, -0.288
- ACUAUGA — higher, -0.412
- CUUAAUU — lower, -0.828
- ACCGUUU — lower, -0.941
- AAAGCGA — higher, 0.738
- GGUAGCA — higher, 1.52
- AACUUAG — higher, -0.376
- UUGAUAA — higher, -0.321
- GGUUCAG — higher, 0.547
- GAGUUGA — higher, 0.878
- UUAGUUU — higher, -0.321
- CGUGCGC — higher, -0.103
- UAGGCUA — higher, 0.186
- CACAUGG — higher, 0.774
- AAACUUA — lower, -0.707
- GUCCCGU — higher, -0.321
- AAUAGGU — higher, 1.37
- AUCUCCG — lower, -0.795
- UACAAGA — higher, -0.295
- GCGAUUC — the same, -0.591
- UGUCACU — higher, -0.552
- CUACGCG — higher, -0.402
- CUCAUAU — lower, -0.802
- GCUCAAU — higher, -0.519
- AUGCUCC — lower, -0.685
- AGAGCGG — higher, 1.43
- AGGGGAU — higher, 3.64
- GAUAGCG — higher, 0.888
- GAAUCUG — lower, -0.652
- UCGGCGG — higher, 0.378
- AAGUCGA — higher, -0.188
- CAGGCAU — higher, 0.209
